The values that follow come from paper PMC3040723, “Three hydrophobic amino acids in Escherichia coli HscB make the greatest contribution to the stability of the HscB-IscU complex” (BMC Biochemistry, 2011).

Changes are numbered by the printed parent chain.

Common to all, as to assay: ITC; 2.5-4 mM apo-IscU (injection syringe) titrated into 0.25-0.4 mM HscB (sample cell); 25 °C; 50 mM HEPES pH 7.5, 150 mM NaCl, 4 mM TCEP
Common to all, as to settings: both partners purified

For assay [1], the target named is T1, HscB(R87A) (E. coli, UniProt P0A6L9 1-171, R87A).
T1 construct: HscB, Escherichia coli, single alanine substitution; source: Escherichia coli, purified (DEAE-cellulose, size exclusion chromatography)
T1 sequence (looked up): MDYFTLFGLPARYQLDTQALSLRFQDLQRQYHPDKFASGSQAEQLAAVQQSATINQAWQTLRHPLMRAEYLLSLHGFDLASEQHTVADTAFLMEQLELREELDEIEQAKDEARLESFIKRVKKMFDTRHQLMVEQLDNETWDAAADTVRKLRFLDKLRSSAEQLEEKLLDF

The target of assay [2] is T2, HscB(E100A) (E. coli, UniProt P0A6L9 1-171, E100A).
T2 construct: HscB, Escherichia coli, single alanine substitution; Uniformly 15N-labelled for the NMR experiments; source: Escherichia coli, purified (DEAE-cellulose, size exclusion chromatography)
T2 sequence (looked up): T1 sequence (looked up) with A87R, E100A

Assay [3] concerns the target T3, HscB(D103A) (E. coli, UniProt P0A6L9 1-171, D103A).
T3 construct: HscB, Escherichia coli, single alanine substitution; Uniformly 15N-labelled for the NMR experiments; source: Escherichia coli, purified (DEAE-cellulose, size exclusion chromatography)
T3 sequence (looked up): T1 sequence (looked up) with A87R, D103A

Assay [4] deals with T4, HscB(F153A) (E. coli, UniProt P0A6L9 1-171, F153A).
T4 construct: HscB, Escherichia coli, single alanine substitution; source: Escherichia coli, purified (DEAE-cellulose, size exclusion chromatography)
T4 sequence (looked up): T1 sequence (looked up) with A87R, F153A

Assay [5] concerns the target T5, HscB(K156A) (E. coli, UniProt P0A6L9 1-171, K156A).
T5 construct: HscB, Escherichia coli, single alanine substitution; source: Escherichia coli, purified (DEAE-cellulose, size exclusion chromatography)
T5 sequence (looked up): T1 sequence (looked up) with A87R, K156A

The target in assay [6] is T1, HscB(R87A). This is another data set of the same source.
Assay [7] concerns the target T6, HscB(L92A) (E. coli, UniProt P0A6L9 1-171, L92A).
T6 construct: HscB, Escherichia coli, single alanine substitution; source: Escherichia coli, purified (DEAE-cellulose, size exclusion chromatography)
T6 sequence (looked up): T1 sequence (looked up) with A87R, L92A

Assay [8] addresses T7, HscB(R99A) (E. coli, UniProt P0A6L9 1-171, R99A).
T7 construct: HscB, Escherichia coli, single alanine substitution; source: Escherichia coli, purified (DEAE-cellulose, size exclusion chromatography)
T7 sequence (looked up): T1 sequence (looked up) with A87R, R99A

B1: apo-IscU (natural protein, E. coli, UniProt P0ACD4 1-128, looked up)
chain: MAYSEKVIDHYENPRNVGSFDNNDENVGSGMVGAPACGDVMKLQIKVNDEGIIEDARFKTYGCGSAIASSSLVTEWVKGKSLDEAQAIKNTDIAEELELPPVKIHCSILAEDAIKAAIADYKSKREAK
notes: No tag is mentioned; purified by ion exchange and gel filtration, so probably untagged whole protein; source: Escherichia coli, purified (DEAE-cellulose, DEAE-Biogel, size exclusion chromatography)
On to B1, for which the Kd (usually the equilibrium constant for the complex coming apart) in assay [1] was ~36 µM. Besides, the Ka was determined as 24000 M⁻¹ in assay [2]; 54000 M⁻¹ in assay [3]; 5000 M⁻¹ in assay [4]; 259000 M⁻¹ in assay [5]; 28000 M⁻¹ in assay [6]; 5000 M⁻¹ in assay [7]. The molecule also displayed a Ka in assay [8] of 19000 M⁻¹. Besides, the dH is -2.22 kcal/mol in assay [2]; -1.61 kcal/mol in assay [3]; 0.58 kcal/mol in assay [4]; -2.64 kcal/mol in assay [5]; -0.88 kcal/mol in assay [6]; 0.41 kcal/mol in assay [7]. In assay [8], this molecule showed a dH of 1.18 kcal/mol. Also, the stoichiometry N – broadly, a count of units in the complex or per binding partner – in assay [2] came to 0.91; in assay [3] it was 1.04; in assay [4], 0.78; in assay [5] it was 0.93; in assay [6], 1.04; in assay [7], 0.7. In addition, the “stoichiometry N” value in assay [8] turned out to be 0.69.
